# Where a SMILES comes first, the peptide text is derived from it. [ ]: non-standard residue; d: D form. The star is where a group is joined. ξ: configuration not given here. Doxorubicin(3'-N) = COc1cccc2c1C(=O)c1c(O)c3c(c(O)c1C2=O)C[C@@](O)(C(=O)CO)C[C@@H]3O[C@H]1C[C@H](N*)[C@H](O)[C@H](C)O1; X8 = CO[C@@]12[C@@H]3N[C@@H]3CN1C1=C(C(=O)C(N*)=C(C)C1=O)[C@@H]2COC(N)=O; X5 = CN(CCNC(=O)c1cc(Oc2ccc(NC(=O)Nc3ccc(Cl)c(C(F)(F)F)c3)c(F)c2)ccn1)*; Mal(CH2CH2O)6CH2CH2CO = O=C1C=CC(=O)N1CCOCCOCCOCCOCCOCCOCCC(=O)*; MaleimidoPEG4propanoyl = O=C1C=CC(=O)N1CCOCCOCCOCCOCCC(=O)*; X4 = [NH3+][Pt-2]1([NH3+])[O]C(=O)C2(CN(*)C2)C(=O)[O]1; Hexanoyl(6-maleimido) = O=C1C=CC(=O)N1CCCCCC(=O)*; Butanoyl(4-maleimido) = O=C1C=CC(=O)N1CCCC(=O)*; Propanoyl(3-maleimido) = O=C1C=CC(=O)N1CCC(=O)*; X1 = O=C1C=CC(=O)N1CCOCCOCCOCCC(=O)*; PEG6 = NCCOCCOCCOCCOCCOCCOCCC(=O)O; X3 = O=C1C=CC(=O)N1CCOCCOCCC(=O)*; PEG3 = NCCOCCOCCOCCC(=O)O; PEG2 = NCCOCCOCCC(=O)O; ξL = CC(C)CC(N)C(=O)O
# Assay: Water solubility test (observation and HPLC)
# Format: physicochemical
# Details: thermodynamic from solid; lyophilized compound dissolved in water; checked by observation and HPLC (>95%)
# Description: The compounds prepared in accordance with the examples of the disclosure and the reference compounds C1, C2, C3 and C4 were lyophilized (−70° C.).
row,SMILES,solubility [mg/mL]
1,C[C@H](NC(=O)CCOCCOCCOCCOCCOCCOCCOCCOCCOCCOCCOCCOCCN1C(=O)C=CC1=O)C(=O)N[C@@H](C)C(=O)NC(CC(N)=O)C(=O)Nc1ccc(COC(=O)OCC(=O)[C@]2(O)CCC3[C@H]4CCC5=CC(=O)C=C[C@@]5(C)C4C(=O)C[C@]32C)cc1 (stereo partly shown) [QHL-147-prednisone],> 10
2,COc1cccc2c1C(=O)c1c(O)c3c(c(O)c1C2=O)C[C@@](O)(C(=O)CO)C[C@@H]3O[C@H]1C[C@H](NC(=O)[C@H](CC(C)C)NC(=O)[C@H](CC(N)=O)NC(=O)[C@H](C)NC(=O)[C@H](C)NC(=O)[C@H](CC(C)C)NC(=O)CCCCCN2C(=O)C=CC2=O)[C@H](O)[C@H](C)O1 [QHL-124-DOX] ({Hexanoyl(6-maleimido)}-LAANL-{Doxorubicin(3'-N)}),> 5
3,C[C@@H](NC(=O)CCOCCOCCNC(=O)CCN1C(=O)C=CC1=O)C(=O)N[C@H](C)C(=O)N[C@H](CC(N)=O)C(=O)Nc1ccc(COC(=O)N(C)CCNC(=O)c2cc(Oc3ccc(NC(=O)Nc4ccc(Cl)c(C(F)(F)F)c4)cc3)ccn2)cc1 [QHL-086-compound a],> 20
4,COc1cccc2c1C(=O)c1c(O)c3c(c(O)c1C2=O)C[C@@](O)(C(=O)CO)C[C@@H]3O[C@H]1C[C@H](NC(=O)[C@H](CC(C)C)NC(=O)[C@H](CC(N)=O)NC(=O)[C@H](C)NC(=O)[C@H](C)NC(=O)CCOCCOCCOCCOCCOCCOCCNC(=O)CCN2C(=O)C=CC2=O)[C@H](O)[C@H](C)O1 [QHL-096-DOX] ({Propanoyl(3-maleimido)-PEG6}-AANL-{Doxorubicin(3'-N)}),> 20
5,COc1cccc2c1C(=O)c1c(O)c3c(c(O)c1C2=O)C[C@@](O)(C(=O)CO)C[C@@H]3O[C@H]1C[C@H](NC(=O)[C@H](CC(C)C)NC(=O)[C@H](CC(N)=O)NC(=O)[C@H](C)NC(=O)[C@H](C)NC(=O)[C@H](CC(=O)O)NC(=O)CCOCCOCCOCCOCCOCCOCCNC(=O)CCN2C(=O)C=CC2=O)[C@H](O)[C@H](C)O1 [QHL-060-DOX] ({Propanoyl(3-maleimido)-PEG6}-DAANL-{Doxorubicin(3'-N)}),> 25
6,COc1cccc2c1C(=O)c1c(O)c3c(c(O)c1C2=O)C[C@@](O)(C(=O)CO)C[C@@H]3O[C@H]1C[C@H](NC(=O)[C@H](CC(C)C)NC(=O)[C@H](CC(N)=O)NC(=O)[C@H](C)NC(=O)[C@H](C)NC(=O)CCOCCOCCN2C(=O)C=CC2=O)[C@H](O)[C@H](C)O1 [QHL-009-DOX] (X3-AANL-{Doxorubicin(3'-N)}),> 10
7,CC(C)CC(NC(=O)[C@@H](CC(N)=O)NC(=O)[C@@H](C)NC(=O)[C@@H](C)NC(=O)CCOCCOCCNC(=O)CCN1C(=O)C=CC1=O)C(=O)N(C)CCNC(=O)c1cc(Oc2ccc(NC(=O)Nc3ccc(Cl)c(C(F)(F)F)c3)c(F)c2)ccn1 (stereo partly shown) [QHL-087-compound b] ({Propanoyl(3-maleimido)-PEG2}-[dA][dA][dN][ξL]-X5),> 10
8,COc1cccc2c1C(=O)c1c(O)c3c(c(O)c1C2=O)C[C@@](O)(C(=O)CO)C[C@@H]3O[C@H]1C[C@H](NC(=O)[C@H](CC(C)C)NC(=O)[C@H](CC(N)=O)NC(=O)[C@H](C)NC(=O)[C@H](C)NC(=O)[C@H](CCC(=O)O)NC(=O)CCOCCOCCOCCOCCOCCOCCNC(=O)CCN2C(=O)C=CC2=O)[C@H](O)[C@H](C)O1 [QHL-057-DOX] ({Propanoyl(3-maleimido)-PEG6}-EAANL-{Doxorubicin(3'-N)}),> 25
9,COc1cccc2c1C(=O)c1c(O)c3c(c(O)c1C2=O)C[C@@](O)(C(=O)CO)C[C@@H]3O[C@H]1C[C@H](NC(=O)[C@H](CC(C)C)NC(=O)[C@H](CC(N)=O)NC(=O)[C@H](C)NC(=O)[C@H](C)NC(=O)[C@H](CC(=O)O)NC(=O)CCOCCOCCOCCOCCN2C(=O)C=CC2=O)[C@H](O)[C@H](C)O1 [QHL-035-DOX] (MaleimidoPEG4propanoyl-DAANL-{Doxorubicin(3'-N)}),> 25
10,COc1cccc2c1C(=O)c1c(O)c3c(c(O)c1C2=O)C[C@@](O)(C(=O)CO)C[C@@H]3O[C@H]1C[C@H](NC(=O)[C@H](CC(C)C)NC(=O)[C@H](CC(N)=O)NC(=O)[C@H](C)NC(=O)[C@H](C)NC(=O)CCOCCOCCOCCOCCOCCOCCNC(=O)CCCN2C(=O)C=CC2=O)[C@H](O)[C@H](C)O1 [QHL-108-DOX] ({Butanoyl(4-maleimido)-PEG6}-AANL-{Doxorubicin(3'-N)}),> 20
11,COc1cccc2c1C(=O)c1c(O)c3c(c(O)c1C2=O)C[C@@](O)(C(=O)CO)C[C@@H]3O[C@@H]1C[C@H](NC(=O)OCc2ccc(NC(=O)[C@@H](CC(N)=O)NC(=O)[C@@H](C)NC(=O)[C@@H](C)NC(=O)CCOCCOCCOCCNC(=O)CCN3C(=O)C=CC3=O)cc2)[C@@H](O)[C@H](C)O1 [QHL-089-epirubicin],> 20
12,CC(C)C[C@H](NC(=O)[C@H](CC(N)=O)NC(=O)[C@H](C)NC(=O)[C@H](C)NC(=O)CCOCCOCCOCCNC(=O)CCN1C(=O)C=CC1=O)C(=O)N1CC2(C1)C(=O)[O][Pt-2]([NH3+])([NH3+])[O]C2=O [QHL-090-N-CBP] ({Propanoyl(3-maleimido)-PEG3}-AANL-X4),> 10
13,CC(C)C[C@H](NC(=O)[C@H](CC(N)=O)NC(=O)[C@H](C)NC(=O)[C@H](C)NC(=O)CCOCCOCCOCCOCCOCCOCCNC(=O)CCN1C(=O)C=CC1=O)C(=O)N1CC2(C1)C(=O)[O][Pt-2]([NH3+])([NH3+])[O]C2=O [QHL-096-N-CBP] ({Propanoyl(3-maleimido)-PEG6}-AANL-X4),> 20
14,CC(C)C[C@H](NC(=O)[C@H](CC(N)=O)NC(=O)[C@H](C)NC(=O)[C@H](C)NC(=O)CCOCCOCCOCCNC(=O)CCCN1C(=O)C=CC1=O)C(=O)N1CC2(C1)C(=O)[O][Pt-2]([NH3+])([NH3+])[O]C2=O [QHL-102-N-CBP] ({Butanoyl(4-maleimido)-PEG3}-AANL-X4),> 10
15,COc1cccc2c1C(=O)c1c(O)c3c(c(O)c1C2=O)C[C@@](O)(C(=O)CO)C[C@@H]3O[C@H]1C[C@H](NC(=O)[C@H](CC(C)C)NC(=O)[C@H](CC(N)=O)NC(=O)[C@H](C)NC(=O)[C@H](C)NC(=O)[C@H](CCC(=O)O)NC(=O)CCOCCOCCOCCOCCOCCOCCN2C(=O)C=CC2=O)[C@H](O)[C@H](C)O1 [QHL-024-DOX] ({Mal(CH2CH2O)6CH2CH2CO}-EAANL-{Doxorubicin(3'-N)}),> 30
16,COc1cccc2c1C(=O)c1c(O)c3c(c(O)c1C2=O)C[C@@](O)(C(=O)CO)C[C@@H]3O[C@H]1C[C@H](NC(=O)[C@H](CC(C)C)NC(=O)[C@H](CC(N)=O)NC(=O)[C@H](C)NC(=O)[C@H](C)NC(=O)[C@H](CCC(=O)O)NC(=O)CCOCCOCCOCCNC(=O)CCN2C(=O)C=CC2=O)[C@H](O)[C@H](C)O1 [QHL-045-DOX] ({Propanoyl(3-maleimido)-PEG3}-EAANL-{Doxorubicin(3'-N)}),> 20
17,CC(C)CC(NC(=O)[C@@H](CC(N)=O)NC(=O)[C@@H](C)NC(=O)[C@@H](C)NC(=O)CCOCCOCCOCCNC(=O)CCN1C(=O)C=CC1=O)C(=O)N(C)CCNC(=O)c1cc(Oc2ccc(NC(=O)Nc3ccc(Cl)c(C(F)(F)F)c3)c(F)c2)ccn1 (stereo partly shown) [QHL-090-compound b] ({Propanoyl(3-maleimido)-PEG3}-[dA][dA][dN][ξL]-X5),> 10
18,CO[C@@]12[C@@H]3N[C@@H]3CN1C1=C(C(=O)C(NC(=O)C(CC(C)C)NC(=O)[C@@H](CC(N)=O)NC(=O)[C@@H](C)NC(=O)[C@@H](C)NC(=O)CCOCCOCCNC(=O)CCN3C(=O)C=CC3=O)=C(C)C1=O)[C@@H]2COC(N)=O (stereo partly shown) [QHL-087-mitomycin] ({Propanoyl(3-maleimido)-PEG2}-[dA][dA][dN][ξL]-X8),> 10
19,CC(C)CC(NC(=O)C(CC(N)=O)NC(=O)C(C)NC(=O)C(C)NC(=O)CCCCCN1C(=O)C=CC1=O)C(=O)N1CC2(C1)C(=O)[O][Pt-2]([NH3+])([NH3+])[O]C2=O (stereo not shown) [QHL-138-N-CBP] ({Hexanoyl(6-maleimido)}-AANL-X4; configuration not given here),> 20
20,COc1cccc2c1C(=O)c1c(O)c3c(c(O)c1C2=O)C[C@@](O)(C(=O)CO)C[C@@H]3O[C@H]1C[C@H](NC(=O)[C@H](CC(C)C)NC(=O)[C@H](CC(N)=O)NC(=O)[C@H](C)NC(=O)[C@H](C)NC(=O)[C@H](CCC(=O)O)NC(=O)CCOCCOCCNC(=O)CCCN2C(=O)C=CC2=O)[C@H](O)[C@H](C)O1 [QHL-063-DOX] ({Butanoyl(4-maleimido)-PEG2}-EAANL-{Doxorubicin(3'-N)}),> 15
21,CC(NC(=O)CCOCCOCCNC(=O)CCN1C(=O)C=CC1=O)C(=O)NC(C)C(=O)NC(CC(N)=O)C(=O)Nc1ccc(COC(=O)N2CC3(C2)C(=O)[O][Pt-2]([NH3+])([NH3+])[O]C3=O)cc1 (stereo not shown) [QHL-086-N-CBP],> 20
22,COc1cccc2c1C(=O)c1c(O)c3c(c(O)c1C2=O)C[C@@](O)(C(=O)CO)C[C@@H]3O[C@@H]1C[C@H](NC(=O)C(CC(C)C)NC(=O)[C@@H](CC(N)=O)NC(=O)[C@@H](C)NC(=O)[C@@H](C)NC(=O)CCOCCOCCOCCNC(=O)CCN2C(=O)C=CC2=O)[C@@H](O)[C@H](C)O1 (stereo partly shown) [QHL-090-epirubicin],> 10
23,COc1cccc2c1C(=O)c1c(O)c3c(c(O)c1C2=O)C[C@@](O)(C(=O)CO)C[C@@H]3O[C@H]1C[C@H](NC(=O)[C@H](CC(C)C)NC(=O)[C@H](CC(N)=O)NC(=O)[C@H](C)NC(=O)[C@H](C)NC(=O)[C@H](CC(=O)O)NC(=O)CCOCCOCCOCCN2C(=O)C=CC2=O)[C@H](O)[C@H](C)O1 [QHL-034-DOX] (X1-DAANL-{Doxorubicin(3'-N)}),> 20
24,COc1cccc2c1C(=O)c1c(O)c3c(c(O)c1C2=O)C[C@@](O)(C(=O)CO)C[C@@H]3O[C@H]1C[C@H](NC(=O)[C@H](CC(C)C)NC(=O)[C@H](CC(N)=O)NC(=O)[C@H](C)NC(=O)[C@H](C)NC(=O)[C@H](CC(=O)O)NC(=O)CCOCCOCCOCCNC(=O)CCN2C(=O)C=CC2=O)[C@H](O)[C@H](C)O1 [QHL-048-DOX] ({Propanoyl(3-maleimido)-PEG3}-DAANL-{Doxorubicin(3'-N)}),> 20
25,COc1cccc2c1C(=O)c1c(O)c3c(c(O)c1C2=O)C[C@@](O)(C(=O)CO)C[C@@H]3O[C@H]1C[C@H](NC(=O)[C@H](CC(C)C)NC(=O)[C@H](CC(N)=O)NC(=O)[C@H](C)NC(=O)[C@H](C)NC(=O)CCOCCOCCOCCOCCOCCOCCN2C(=O)C=CC2=O)[C@H](O)[C@H](C)O1 [QHL-012-DOX] ({Mal(CH2CH2O)6CH2CH2CO}-AANL-{Doxorubicin(3'-N)}),> 20
